# Test results taken from PubChem BioAssay AID1508623 (National Center for Advancing Translational Sciences (NCATS), 2021).
# Out of some 48,000 compounds screened, about 450 (0.94%) were called active. Inconclusive results (about 19%) are left out. Calls follow the shape of the dose curve; as a rule, active = well fitted inhibition curve with a large enough effect; inconclusive = small, poorly fitted or top-dose-only effect; inactive = no such curve, though single readings can be large or run the other way. The list shows a part of the results.
# Assay: Primary qHTS for Identification of Small Molecule Inhibitors of Huntingtin Promoter Activity; also: nearly all actives have a fitted effect of over 50% in size
# Conditions: HEK293 HTT promoter firefly luciferase reporter (activity 0% = vehicle and -100% = no light), 24 h; series mostly up to 57.5 µM; activity change, negative = inhibition: at the top concentration
# Source text: Assay Provider: Russell L. Margolis M.D.
# Department Neurology, Johns Hopkins University School of Medicine, Baltimore, MD
# Huntington's Disease (HD) is a neurodegenerative disorder caused by a CAG repeat expansion in exon 1 of huntingtin (HTT). While there are currently no disease-modifying treatments for HD, recent efforts have focused on development of nucleotide-based therapeutics to lower HTT expression. As an alternative to siRNA or oligonucleotide methods, we hypothesized that suppression of HTT expression might be accomplished by small molecules that either (1) directly decrease HTT expression by suppressing HTT promoter activity or (2) indirectly decrease HTT expression by increasing the promoter activity of HTT-AS, the gene antisense to HTT that appears to inhibit expression of HTT.
# We developed and employed a high throughput screen for modifiers of HTT and HTT-AS promoter activity using luminescent reporter HEK293 cells; of the 52,041 compounds tested, we identified 898 replicable hits. We used a rigorous stepwise approach to assess compound toxicity and the capacity of the compounds to specifically lower huntingtin protein in 5 different cell lines, including HEK293 cells, HD lymphoblastoid cells, mouse primary neurons, HD iPSCs differentiated into cortical-like neurons, and HD hESCs. We found no compounds which were able to lower huntingtin without lowering cell viability in all assays, though the potential efficacy of a few compounds at non-toxic doses could not be excluded.
# SEQUENCE No. (1, 2, 3, etc.); […] (e.g., Cells, Incubation, Reagent, etc.); VALUE and DESCRIPTION.
# 1; Reagent; 4 uL; 2,500 Hek293 luciferase reporter cells per wells
# 3; Compound; 23 nL; Control inhibitor / compound library
# 5; Reagent; 2.5 uL; Firefly Luc reagent; Dual-Glo Luciferase Reporter Assay System (Promega)
# 6; Time; 10 min; room temperature incubation
# 7; Detection; Luminescence; FLuc
# NOTES (numbers refer to sequence above)
# 1; High-throughput screening, measuring luminescence from a Hek293 luciferase reporter, was performed in 1,536 well white-walled tissue-culture treated plates. 2,500 cells were plated in 4 µL of Opti-MEM per well using a Multidrop Combi Reagent Dispenser (ThermoFisher).
# 2; Assay plates were cultured for 24 hours.
# 3; Control inhibitor (PTC124; final concentration of 50 uM) and compound library (at final concentrations of 460 nM - 57.5 uM) were added to the assay plate using the Kalypsis Pintool Robotic System equipped with 1536 pinheads.
# 4; Cells were then incubated for 24 hours at 37 degrees C prior to luminescence measurements.
# 5; In all cases, luminescence was measured using the Dual-Glo Luciferase Reporter Assay System (Promega) following the manufacturer's instructions.
# 6; Room temperature incubation.
# 7; Luminescence signal was obtained using the PerkinElmer ViewLux plate reader. Results were normalized to vehicle control (0% activity) and zero RLU (-100% activity).
row,Structure (SMILES),"activity change, negative = inhibition"
1,O=C(Nc1ccc(NC(=O)c2cccs2)cc1)c1cccc(Br)c1,inactive: 21.9%
2,CCOc1ccc(Sc2cc(C(=O)NC(C)CC)c3ccccc3n2)cc1 (stereo not drawn),inactive: -14.4%
3,COc1ccc(N2CCN(S(=O)(=O)c3ccc(OC)c(-c4noc(C)n4)c3)CC2)cc1,inactive: 4.63%
4,O=C(Cn1ncc2c3ccccc3n(Cc3ccc(Cl)cc3)c2c1=O)NCc1cccs1,inactive: -16.4%
5,O=c1cc(-c2ccc(F)cc2)nc(SCc2nc(-c3cccc(Cl)c3)no2)[nH]1,inactive: 1.75%
6,Cc1cc(NC(=O)CSc2nc3c([nH]c4ccccc43)c(=O)n2-c2ccccc2)no1,inactive: -12.5%
7,O=C(C1CCCN(S(=O)(=O)c2ccc(Br)s2)C1)N1CCN(c2ccc(F)cc2)CC1 (stereo not drawn),inactive: -6.63%
8,Cc1ccc(C2CC(=O)N(Cc3ccccc3)c3c2c(C)nn3-c2nc(C)cc(C)n2)cc1 (stereo not drawn),inactive: -19.8%
9,Cc1ccc2c(=O)cc(C(=O)Nc3sc4c(c3C(N)=O)CCCC4)oc2c1,inactive: -11.5% [at 11.5 µM]
10,O=C(C1CCN(S(=O)(=O)Cc2ccccc2)CC1)N1CCN(c2ccc(F)cc2)CC1,inactive: -29.8%
11,COc1ccc(C2C(=O)N(C3CCCCC3)CC(=O)N2CCc2ccc(OC)c(OC)c2)cc1 (stereo not drawn),inactive: -8.41%
12,Cc1ccc(C)c(CN2C(=O)C3(c4ccccc42)N(c2cccc(C(F)(F)F)c2)C(=O)CS3(=O)=O)c1 (stereo not drawn),inactive: -28.2%
13,Cc1ccc2oc(-c3cc(NC(=O)c4ccc5c(c4)OCCO5)cc(C)c3O)nc2c1,inactive: -11.9%
14,COc1cc(NC(=O)c2nc3ccccc3nc2C)cc(OC)c1OC,inactive: 8.91%
15,CCC(C(=O)N1CCN(c2ccccc2F)CC1)n1nc(C)c2sc3ccccc3c2c1=O (stereo not drawn),inactive: -12.2%
16,COc1cc(CN(C(=O)c2cccc(Cl)c2)c2ccccn2)cc(OC)c1OC,inactive: -33.9%
17,Cc1ccc(Cl)cc1N1CCN(C(=O)c2cccn3c(=O)c4cc(Cl)ccc4nc23)CC1,inactive: 0%
18,Cc1ccc(-n2nc(C(=O)Nc3ccc(Cl)cn3)c3c4ccccc4n(C)c3c2=O)cc1,inactive: -6.37%
19,COc1ccc(NC(=O)CSc2nc(-c3ccco3)cc(C(F)(F)F)n2)c(OC)c1,inactive: 0.877%
20,CCCc1nn2c(=O)cc(COc3ccc(/C=C(\C#N)C(=O)Nc4ccc(F)cc4)cc3)nc2s1,inactive: -8.18%
21,CCN(CC)C(=O)Cn1c(SCCOc2ccc(Cl)cc2)nc2ccccc21,inactive: -18.4%
22,O=C(CCS(=O)(=O)c1cc2c(cc1Cl)NC(=O)CO2)NCCc1ccc(Cl)cc1,inactive: -6.32%
23,CC(=O)N1c2ccccc2C(=O)C1N1CCN(c2ccc(F)cc2)CC1 (stereo not drawn),inactive: -24.3%
24,COc1ccc(NC(=O)c2ccc(CNS(=O)(=O)c3ccc4c(c3)C(C)(C)C(=O)N4C)cc2)cc1,inactive: -19.5%

row,Structure (SMILES),"activity change, negative = inhibition"
1,O=C(Nc1ccc2c(c1)N(C1CCCC1)C(=O)c1ccccc1S2)c1cccc(F)c1,inactive: -18.3%
2,CC(C)Oc1ccc(CNC(=O)CCn2c(=O)c3cccn3c3ccc(F)cc32)cc1,inactive: -7.82%
3,COc1cccc(-n2c(=O)c3c(C)c(C(=O)N(C)C)sc3n(CC(=O)Nc3ccc(C)cc3Cl)c2=O)c1,inactive: -8.54%
4,COc1cccc(CNC(=O)C2CCCN(c3ncnc4onc(-c5ccc(F)cc5)c34)C2)c1 (stereo not drawn),inactive: -6.28%
5,CC(C)OCCCNC(=O)CN1C(=O)CSc2ccc(S(=O)(=O)N3CCCCC3)cc21,inactive: -10.3%
6,Cc1ccc(Cl)cc1NCc1nnc2n1CCCCC2,inactive: -8.32%
7,O=C1CC(c2nc(-c3cccc(Cl)c3)no2)CN1c1ccc2c(c1)OCCO2 (stereo not drawn),inactive: -29.8%
8,Cc1n[nH]c(C)c1S(=O)(=O)N(CC(=O)NCc1ccccc1Cl)c1ccc(C(C)C)cc1,inactive: -23.8%
9,Cc1ccc(-n2nnnc2C2CCN(S(=O)(=O)c3ccc(OC(F)(F)F)cc3)CC2)cc1,inactive: -8.25%
10,CCN(C(=O)Cn1c(=O)oc2cc(S(=O)(=O)N3CCCC3)ccc21)c1cccc(C)c1,inactive: -23.2%
11,CCOc1ccc(CCNC(=O)c2c(C)oc3ncnc(N4CCOCC4)c23)cc1,inactive: -13.7%
12,Cc1cc(C)cc(NC(=O)CN(C)S(=O)(=O)c2ccc3[nH]c4c(c3c2)CCCC4)c1,inactive: -18.6%
13,COCCCNC(=O)CSc1nc2ccccc2c(=O)n1Cc1ccco1,inactive: 5.29%
14,CCOc1cccc(CNc2ccc(O)cc2)c1OCc1ccccc1Cl,inactive: -22%
15,COc1ccc(CNC(=O)c2ccc3[nH]c(C)c(C)c3c2)c(OC)c1,inactive: -4.39%
16,COc1ccc(C(=O)Nc2ccc(OCc3cc(=O)n4ccccc4n3)cc2)cc1,inactive: 7.58%
17,CCc1nnc2c(NCCc3ccc(OC)c(OC)c3)nc3ccccc3n12,inactive: -4.66%
18,Cc1ccc(C)c(N2CCN(C(=O)CCS(=O)(=O)c3ccc4c(c3)CC(=O)N4C)CC2)c1,inactive: -92.9%
19,CCN(CC)CCOC(=O)C(c1ccccc1)C1CCCCC1 (stereo not drawn),inactive: -6.13%
20,COc1cccc(C2CC(=O)Nc3c2c(=O)n(C)c2ncnn32)c1OC (stereo not drawn),inactive: -3.05%
21,COC(=O)c1c(NC(=O)COc2cc(C)c(Cl)c(C)c2)sc2c1CCCC2,inactive: -2.92%
22,COc1ccc(OC)c(S(=O)(=O)Nc2cc3c(C(C)=O)c(C)oc3c3ccccc23)c1,inactive: -28.1%
23,COc1ccc(-c2nnc(SCC(=O)Nc3ccc(C(C)=O)cc3)nc2-c2ccc(OC)cc2)cc1,inactive: 6.17%
24,Cc1ccc(OCC(=O)N(Cc2ccco2)C2CCS(=O)(=O)C2)cc1 (stereo not drawn),inactive: -1.83%

row,Structure (SMILES),"activity change, negative = inhibition"
1,CC(Oc1ccc(F)cc1)C(=O)Nc1cc(-c2ccc(F)c(F)c2)no1 (stereo not drawn),inactive: -6.37%
2,Cc1cccc(OCC(=O)Nc2ccc(-c3nc4cc(C)ccc4o3)c(O)c2)c1,inactive: 110%
3,CCC1CN(C(=O)N2CCC(C(=O)NCCC3=CCCCC3)CC2)c2cc(C)ccc2O1 (stereo not drawn),inactive: -7.49%
4,CCn1cc2nc(SCc3ccc(C)cc3)n(CCc3ccccc3)c(=O)c2n1,inactive: -13.4%
5,COc1ccc(S(=O)(=O)N(CC(=O)N(C)Cc2ccccc2)c2ccc(Cl)cc2)cc1,inactive: -21.1%
6,Cc1ccc(OCC(=O)Nc2ccc(Cl)c(-c3nc4ccccc4[nH]3)c2)cc1C,inactive: -21.1%
7,COc1ccc(NC(=O)CSc2nnc(NC(=O)Nc3ccccc3)s2)c(OC)c1,inactive: -1.81%
8,COc1cc(Cc2cnc(N)nc2N)cc(OC)c1OC,inactive: -1.65%
9,CCc1ccc(NC(=O)CSc2nc3ccccc3nc2Cc2ccccc2OC)cc1,inactive: -0.612%
10,Cc1cc(C)cc(NC(=O)N2CCN3CCCCC3C2)c1 (stereo not drawn),inactive: 11.6%
11,CC(C)(C)c1ccc(C(=O)NC(Cc2c[nH]c3ccccc23)C(=O)OCC(=O)c2ccccc2)cc1 (stereo not drawn),inactive: 5.72%
12,COc1ccc(Cn2c(=O)[nH]c3cc(C(=O)N4CCN(c5cccc(OC)c5)CC4)ccc3c2=O)cc1,inactive: 0.309%
13,Cn1cc(C(=O)NCc2ccc(Cl)cc2)c(=O)c2cc(S(=O)(=O)N3CCCCCC3)ccc21,inactive: -14.6%
14,COc1cccc(C(=O)Nc2cc3cc(OC)ccc3oc2=O)c1,inactive: 0%
15,Cc1cc(C)c2c(n1)SCCN2C(=O)Nc1ccc(C(=O)Nc2cc(Cl)ccc2C)cc1,inactive: -12.9%
16,Cc1cc(C(=O)NCCc2ccc(Cl)cc2)c2c(C)nn(-c3cccc(F)c3)c2n1,inactive: -3.44%
17,COC(=O)c1cc2sc(Cl)cc2n1Cc1nc(-c2ccc(OC)cc2)oc1C,inactive: -6.96%
18,COc1ccc(N(CC(=O)NCCc2cccc(C)c2)S(=O)(=O)c2c(C)noc2C)cc1,inactive: -29.4%
19,O=C(Nc1nnc(S(=O)(=O)N2CCN(c3ccc(F)cc3)CC2)s1)c1ccc(Cl)cc1,inactive: -7.12%
20,Cc1ccc(Cl)cc1NC(=O)COCc1cc(-c2ccco2)on1,inactive: 9.39%
21,CCCCSCCCNC(=O)CN1C(=O)COc2ccc(S(=O)(=O)N3CCC(C)CC3)cc21,inactive: -19.9%
22,Cc1ccc(NC(=O)Cn2c(CCC(=O)O)ccc2-c2ccc(Cl)cc2)cc1,inactive: -12%
23,COC(=O)c1ccc(NC(=O)Cn2nc(C(=O)Nc3ccc(C)cc3)ccc2=O)cc1,inactive: -9.86%
24,CCN(CC)S(=O)(=O)c1ccc2c(c1)N(CC(=O)N(C)Cc1ccccc1)C(=O)CO2,inactive: -12.8%

row,Structure (SMILES),"activity change, negative = inhibition"
1,Cc1ccc(Cn2cc(CCC(=O)NCc3ccccc3F)c3ccccc32)cc1,inactive: -19.4%
2,O=C(CNC(=O)c1ccc(Cl)cc1)OCc1cc(=O)n2ccsc2n1,inactive: -8.74%
3,COc1ccc(-c2[nH]c3c(c2-c2c(-n4cccc4)n(C)c(=O)n(C)c2=O)c(=O)n(C)c(=O)n3C)cc1,inactive: -2.83%
4,COc1cccc(CNC(=O)C(NS(=O)(=O)c2ccc3c(c2)oc(=O)n3C)C(C)C)c1 (stereo not drawn),inactive: -9.55%
5,Cc1c(C(=O)OCC2CCCCC2)[nH]c2c1C(=O)CC(c1ccc(Cl)cc1)C2 (stereo not drawn),inactive: 3.05%
6,Cc1cccc(NC(=O)CSc2nc(C3CCCC3)nc3c2c(=O)n(C)c(=O)n3C)c1C,inactive: 10.1%
7,Cc1nnsc1C(=O)Oc1ccc(C(C)C)cc1,inactive: -6.88%
8,COc1ccc2c(c1)-c1nc(NC(=O)c3ccccc3F)sc1CC2,inactive: -0.851%
9,CCN(CC)C(=O)c1sc2c(c1C)c(=O)n(-c1ccc(C)c(C)c1)c(=O)n2Cc1cc(=O)n2c(C)cccc2n1,inactive: -1.11%
10,CCn1c(=O)cc(OCC(=O)NCc2ccccc2Cl)c2ccccc21,inactive: 0.249%
11,COc1ccc(CNC(=O)CSc2ncc3c(n2)-c2cc(Cl)ccc2N(Cc2ccccc2)S3(=O)=O)cc1OC,inactive: -27.5%
12,O=C(c1ccccc1)n1nc(-c2ccco2)nc1NCc1cccs1,inactive: 3.62%
13,COc1cc2c(cc1OC)CN(CCc1ccc(NC(=O)c3cc(OC)c(OC)cc3NC(=O)c3cnc4ccccc4c3)cc1)CC2,inactive: -18.9%
14,O=c1cc(-c2ccccc2)nc2cc(-c3ccc(F)cc3)[nH]n12,inactive: 6.05%
15,Cc1ccc(S(=O)(=O)N2CCc3cc(C(=O)Nc4ccc(C)c(C)c4)ccc32)cc1,inactive: -21.5%
16,CCC(=O)OCc1cnc(C)c2oc(=O)c(C(=O)Nc3ccccc3C(F)(F)F)cc12,inactive: -8.8%
17,COc1cc2ccccc2cc1C(=O)Nc1cc(-c2nc3ccccc3o2)ccc1C,inactive: 16.5%
18,Cc1cccc(N(C)C(=O)CN(C)S(=O)(=O)c2ccc3[nH]c4c(c3c2)CCCC4)c1,inactive: -6.85%
19,CCCCNc1nc(Oc2ccc(OCCC)nn2)nc(N(C)C)n1,inactive: -27.8%
20,COc1ccc(CC(=O)Nc2c(C(=O)Nc3ccc(F)cc3)oc3ccccc23)cc1OC,inactive: 22.1%
21,COc1ccc(OC)c(CCNC(=O)CN2C(=O)COc3ccc(S(=O)(=O)N4CCC(C)CC4)cc32)c1,inactive: -24.5%
